Experimental data as given in PubChem BioAssay AID686979 (National Center for Advancing Translational Sciences (NCATS), 2013).
Screen size: about 420,000 compounds; about 50,000 (12%) were called active. Inconclusive means that the source gave no clear call. Such entries were picked first, then a sample of the others. The call rests on the fitted dose curve; in most records, active means well fitted inhibition curve with a large enough effect; inconclusive means small, poorly fitted or top-dose-only effect; inactive means flat fitted curve, though single readings scatter. Potencies of inconclusive entries are left out as doubtful fits.

Experiment: qHTS for Inhibitors of human tyrosyl-DNA phosphodiesterase 1 (TDP1): qHTS in cells in presence of CPT; further: nearly all actives have a fitted effect of over 55% in size
Details: chicken DT40 Tdp1-/-;hTDP1 cells + 20 nM CPT, ATP luminescence, 48 h; activity change, negative = growth inhibition: at 46.2 µM (top of the series) unless noted
Procedure, shortened: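 Cell growth measured by CellTiter-Glo luminescence after a minimum 48 h, 37 C compound exposure with 20 nM CPT in Tdp1-knockout DT40 cells stably expressing hTDP1, seeded 400/well; qHTS titration format.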
On the % scale 0 is the no-effect control and ±100 the full control effect; potency means the concentration at half of the fitted maximal effect; tags describe the fitted curve by direction and shape.

Structure (SMILES)	Potency	activity change, negative = growth inhibition
NC(=O)c1nc(Nc2ccccc2)sc1NC(=O)c1c(F)cccc1F	inconclusive [inhibitor, full curve]	
Cc1[nH]c2ccccc2c1/C=N/NC(=O)c1cccc(Br)c1		inactive: 24.7%
COc1ccc(NS(=O)(=O)c2cccc(C(=O)OCC(=O)Nc3cc(C)on3)c2)cc1		inactive: -6.56%
Cc1cccc(CCNC(=O)c2oc3c(C)c(C)ccc3c2C)n1	inconclusive [inhibitor, single point]	
COc1ccc(OC)c(NC(=O)C(=O)c2cn(CC(=O)N3CCCC3)c3ccccc23)c1	inconclusive [inhibitor, single point]	
C[C@H](CO)N1C[C@H](C)[C@@H](CN(C)CC2CCCCC2)Oc2c(NC(=O)CCC(F)(F)F)cccc2C1=O	active: 20.6 µM	
O=C(/C=C/c1ccc(S(=O)(=O)N2CCOCC2)cc1)NCc1ccc(Cl)cc1	inconclusive [inhibitor, single point]	
c1csc(-c2cn3ccc4ccccc4c3n2)c1		inactive: -13.7%
O=C(O)CSc1ncnc2sc3c(c12)CCC3	inconclusive [inhibitor, single point]	
COc1ccc(F)cc1S(=O)(=O)NCC(c1ccco1)S(=O)(=O)c1cccs1 (configuration not stated)	inconclusive [inhibitor, single point]	
O=C(CC1C(=O)NCCN1CC1CCCCC1)NCc1ccc(F)cc1F (configuration not stated)		inactive: -0.574%
O=C(CSc1cccc2cccnc12)N/N=C/c1ccc(O)cc1	inconclusive [inhibitor, single point]	
CCCCN(C=O)c1c(CC)nc2c(OCCOc3ccccc3)cccn12	inconclusive [inhibitor, single point]	
COc1ccc(-c2ccc(C3C(C#N)=C(N)Oc4n[nH]c(C)c43)o2)cc1 (configuration not stated)	active: 20.6 µM	
CCCCCCCCCC[n+]1cccc(C(=O)N(CC)CC)c1	active: 8.2 µM	
Cc1nc(SCC(=O)N2CCC(Cc3ccccc3)CC2)[nH]c(=O)c1C	active: 16.4 µM	
COc1ccc(-n2c(Cc3cccn3C)nnc2SCC(=O)NCc2ccco2)cc1	inconclusive [inhibitor, single point]	
CC(C)(C)c1ccc(OCC(=O)Nc2ccc(C(=O)OC3CCCCC3)cc2)cc1	inconclusive [inhibitor, partial curve, poor fit]	
CCc1ccccc1NC(=O)c1oc(=O)c2ccccc2c1-c1ccccc1	inconclusive [inhibitor, single point]	
CCC(=O)Nc1c(-c2ccc(C)cc2)nc2ccc(C)cn12		inactive: -1.86%
COc1cc(OC)cc(C(=O)N[C@H](C(=O)OCC(=O)NC(C)c2ccccc2)C(C)C)c1 (some centres not stated)		inactive: -11.1%
O=C(Nc1ncccc1O)c1c(O)c2ccccc2[nH]c1=O	inconclusive [inhibitor, single point]	
O=C(NCc1ccccc1)C(c1ccccc1)n1c(-c2ccncc2)nc2ccccc21 (configuration not stated)	inconclusive [inhibitor, partial curve]	
CC(C)Cn1nc(NC(=O)c2cccc(Cl)c2)c2cc3ccccc3nc21	active: 14.6 µM	

Structure (SMILES)	Potency	activity change, negative = growth inhibition
COCCn1c(Cc2ccccc2)nnc1SCc1nc2ccccc2c(=O)[nH]1	inconclusive [inhibitor, single point]	
CC(C)Oc1cc(C(=O)NC2CCCCC2)c2ccccc2n1	inconclusive [inhibitor, partial curve]	
COc1ccccc1OCCCCCCN1CCN(C)CC1		inactive: -6.86%
CC1OC(n2cc(F)c(=O)[nH]c2=O)C(O)C1O (configuration not stated)	active: 6.51 µM	
CN(C)CCN1CCN(C2CN(C3CCCC3)S(=O)(=O)C2)CC1 (configuration not stated)		inactive: -13.1%
NC(=O)c1cc(C(=O)Cc2ccc(Cl)cc2)c[nH]1		inactive: 0.0512%
CCOc1ncccc1C(=O)Nc1ccc(-c2ccc3nnc(C)n3n2)cc1		inactive: -6.78%
Cc1ccc(-c2nnn(CC(=O)Nc3ccc(S(=O)(=O)N4CCC(C)CC4)cc3)n2)cc1	inconclusive [inhibitor, single point]	
COc1ccc(F)cc1S(=O)(=O)NCC(=O)NCc1cc(=O)n(C)c(=O)n1C		inactive: 12.8%
COc1cc(C)c(C)cc1S(=O)(=O)N1CCCCC1c1cccnc1 (configuration not stated)	inconclusive [inhibitor, single point]	
CC(=O)Nc1ccc(NC(=O)COC(=O)Cc2cccs2)cc1		inconclusive: -30.8% [inhibitor]
CCCCOc1cccc(C(=O)Nc2sc3c(c2C(=O)OCC)CCCC3)c1		inactive: -3.5%
Cc1ccc(S(=O)(=O)NC(=O)C2(C)CCN2C(=O)c2ccccc2)nc1 (configuration not stated)		inactive: 14.1%
C=CCNC(=O)N1CCCC(C(=O)c2cccc(OC(C)C)c2)C1 (configuration not stated)	inconclusive [inhibitor, single point]	
CC[C@]12C(=O)N(C)C[C@H]([C@@H]3C(=O)N(Cc4ccccc4)C(=O)[C@@H]31)N2C(=O)c1ccc(C(F)(F)F)cc1		inactive: -11.2%
CCN(C(=O)c1cccnc1SC)C12CC3CC(CC(C3)C1)C2	inconclusive [inhibitor, single point]	
CCOC(CNc1ncnc2sc(-c3ccccc3)cc12)OCC	inconclusive [inhibitor, single point]	
O=c1c2ccccc2nc(/C=C/c2cccc(Br)c2)n1CCCO	inconclusive [inhibitor, single point]	
COc1ccccc1CNc1ccnc(-c2cccc(NS(C)(=O)=O)c2)n1	inconclusive [inhibitor, single point]	
COc1ccc(CCNC(=O)CCCCn2c(=O)c3ccccc3n(Cc3cc(C)ccc3C)c2=O)cc1OC		inactive: -16.6%
COc1cc(=O)n2c(c1C(=O)N(C)Cc1cscn1)CCN(C(=O)c1cccc(C)c1C)CC2		inactive: -0.501%
CCCN(CCC)C(=O)Cn1c(=O)n(-c2ccc(OC)cc2OC)c(=O)c2c3c(sc21)CCC3		inactive: -2.91%
CCOc1ccc(CNC(=O)c2ccc3c(c2)c(C)c(C)n3C)cc1	inconclusive [inhibitor, single point]	
